{"source": "PubChem BioAssay AID485344", "about": "(National Center for Advancing Translational Sciences (NCATS), 2010)", "note": "Hit rate of the full screen: of about 340,000 compounds, about 6,900 (2%) were called active. Cut-off read from the data, not from the text of the source: active = inhibition above about 30%; inactive = below that, where a call was filed. This is a selection; strong and weak results do not stand in their true shares. Where no call is shown, the source filed none.", "data": [{"biological_target": "D(2) dopamine receptor (Homo sapiens) (UniProt P14416)", "sequence (P14416 whole entry, looked up)": "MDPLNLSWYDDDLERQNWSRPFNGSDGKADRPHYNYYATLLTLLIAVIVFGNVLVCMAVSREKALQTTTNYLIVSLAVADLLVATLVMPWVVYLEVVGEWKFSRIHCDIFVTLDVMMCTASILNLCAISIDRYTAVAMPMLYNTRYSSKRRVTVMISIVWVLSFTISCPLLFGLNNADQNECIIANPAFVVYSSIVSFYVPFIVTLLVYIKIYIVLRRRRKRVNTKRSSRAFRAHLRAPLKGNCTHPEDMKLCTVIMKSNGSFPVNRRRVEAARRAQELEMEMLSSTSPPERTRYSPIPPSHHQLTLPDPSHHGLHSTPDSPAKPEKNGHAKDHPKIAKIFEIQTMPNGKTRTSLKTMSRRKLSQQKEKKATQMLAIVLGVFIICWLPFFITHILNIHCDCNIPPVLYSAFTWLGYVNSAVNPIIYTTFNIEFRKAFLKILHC", "experiment": "HTS Assay for Allosteric Antagonists of the Human D2 Dopamine Receptor: Primary Screen for Antagonists; note: 0% is about no effect", "details": "HEK293 TREx D2 cells, calcium flux, dopamine EC80; at 10 µM; stronger effect = higher value", "how_it_was_run": "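Dopamine at EC80 is the agonist stimulus; test compounds precede it by 180 s. Calcium flux read kinetically in a force-coupled, inducible HEK293 T-REx D2 cell line.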", "values": [{"smiles": "COc1ccc(Nc2nc3c(S(=O)(=O)c4ccc(Br)cc4)nnn3c3ccsc23)c(OC)c1", "inhibition": "1.73%"}, {"smiles": "CCOC(=O)c1c(NC(=O)c2cc(-c3ccc(Cl)cc3)on2)sc2c1CCCC2", "inhibition": "14.1%"}, {"smiles": "CNS(=O)(=O)c1cc(-c2nn3c(C)nnc3c3ccccc23)ccc1C", "inhibition": "-10.3%"}, {"smiles": "Cc1ccc(CNc2oc(-c3ccc(COc4ccc(Cl)cc4)o3)nc2C#N)cc1", "inhibition": "3.05%"}, {"smiles": "CCOc1ccc(-c2cc3nc(C4CCN(C(=O)OC(C)(C)C)CC4)c(C(=O)Nc4ccc(C)c(F)c4)cn3n2)cc1", "inhibition": "-8.29%"}, {"smiles": "Cc1ccccc1OCc1cc(=O)n2c(-c3ccccc3)csc2n1", "inhibition": "-18.2%"}, {"smiles": "CC(C)CCNC(=O)c1cn(C)c2ccc(S(=O)(=O)N3CCCC3)cc2c1=O", "inhibition": "-11.5%"}, {"smiles": "COc1ccccc1N1CCN(CC(=O)c2c(C)[nH]c3ccccc23)CC1", "inhibition": "active: 30.9%"}, {"smiles": "CCN1CCN(CCOc2ccccc2-c2ccccc2)CC1", "inhibition": "active: 86.8%"}, {"smiles": "CCn1cc(C(=O)N2CCN(c3cc(Cl)ccc3C)CC2)c(=O)c2cc(S(=O)(=O)N3CCOCC3)ccc21", "inhibition": "-3.39%"}, {"smiles": "CCC(=O)N1CCc2cc(Br)cc(S(=O)(=O)N3CCC(C(=O)N(CC)CC)CC3)c21", "inhibition": "9.31%"}, {"smiles": "COc1cccc(CNC(=O)c2ccc3c(c2)N(C)C(=O)C2CCCCN32)c1", "note": "(stereo not given)", "inhibition": "-7.7%"}, {"smiles": "CCc1ccc(NC(=O)C2CCC(CNS(=O)(=O)c3cccs3)CC2)cc1", "note": "(stereo not given)", "inhibition": "5.69%"}, {"smiles": "Cc1ccccc1NC(=O)c1c(NC(=O)c2ccncc2)sc2c1CCC(C(C)(C)C)C2", "note": "(stereo not given)", "inhibition": "-14.1%"}, {"smiles": "COc1ccccc1NC(=O)C1=C(C)Nc2nc(-c3ccco3)nn2C1c1ccccc1", "note": "(stereo not given)", "inhibition": "4.06%"}, {"smiles": "COc1ccccc1N1CCN(Cc2nc(-c3ccc(F)cc3)oc2C)CC1", "inhibition": "active: 80%"}, {"smiles": "CC1CCN(S(=O)(=O)c2ccc(C(=O)Nc3nc4ccc(F)cc4s3)cc2)CC1", "inhibition": "-7.08%"}, {"smiles": "CCOc1ccccc1NC(=O)c1cc2cc(C)ccc2n1C", "inhibition": "-3.87%"}, {"smiles": "CC(=O)c1ccc(NS(=O)(=O)c2cnc(N)nc2)cc1", "inhibition": "0.0958%"}, {"smiles": "Cc1cccc(NC(=O)CSC2=Nc3ccccc3C3=NC(CCC(=O)NCc4ccc(F)cc4)C(=O)N23)c1", "note": "(stereo not given)", "inhibition": "-10.7%"}, {"smiles": "CC(=O)c1cccc(Nc2ncnc3c2cnn3C)c1", "inhibition": "-15.5%"}, {"smiles": "O=C(NCCc1ccc(Cl)cc1)c1ccc(Cn2c(=O)[nH]c3ccccc3c2=O)cc1", "inhibition": "8.02%"}, {"smiles": "CCOc1ccccc1NC(=O)Cc1csc(COc2cccc(C)c2)n1", "inhibition": "3.04%"}, {"smiles": "Cc1ccc(-n2c3c(c(=O)[nH]c2=O)C(NS(=O)(=O)c2ccc(C)cc2)(C(F)(F)F)C(=O)N3)cc1", "note": "(stereo not given)", "inhibition": "5.14%"}, {"smiles": "CCOc1ccc(CN2C(=O)c3ccccc3Sc3ccc(C(=O)NCCc4ccccc4)cc32)cc1", "inhibition": "-1.03%"}, {"smiles": "COc1ccc2[nH]cc(CCNC(=O)Nc3cccc(F)c3)c2c1", "inhibition": "21.7%"}, {"smiles": "O=C(CCC1CCCCC1)Nc1ccc(C(=O)c2ccncc2)cc1", "inhibition": "active: 47.7%"}, {"smiles": "CC(=O)c1ccccc1OCC(O)CN1CCN(CCN2C(=O)c3cccc4cccc(c34)C2=O)CC1", "note": "(stereo not given)", "inhibition": "active: 36.3%"}, {"smiles": "COc1cccc(CNC(=O)CCc2c(C)nc3c(c2C)c(=O)n(C)c(=O)n3C)c1", "inhibition": "16.8%"}, {"smiles": "CCc1ccccc1NC(=O)CSc1ncccc1C(=O)O", "inhibition": "-8.11%"}, {"smiles": "OCC1(Cc2ccccc2)CCN(Cc2cnn(-c3ccccc3F)c2)CC1", "inhibition": "active: 31.2%"}, {"smiles": "COc1ccc(Nc2ncnc3c2c(-c2ccccc2)cn3-c2ccc(C)c(Cl)c2)cc1OC", "inhibition": "-20.8%"}, {"smiles": "CCc1ccc(NC(=O)C2CCCN(c3nn4cc(-c5ccc(OC)cc5)nc4s3)C2)cc1", "note": "(stereo not given)", "inhibition": "-17.9%"}, {"smiles": "CCOc1ccc(C2C(C(=O)OC)=C(C)NC3=C2C(=O)c2ccccc23)cc1OC", "note": "(stereo not given)", "inhibition": "2.31%"}, {"smiles": "Cc1ccc(NC(=O)c2c(C)oc3ccc(O)c(CN4CCCC4)c23)c(C)c1", "inhibition": "9.7%"}, {"smiles": "Cc1ccc(NC(=S)N2CCN(c3ccccn3)CC2)c(C)c1", "inhibition": "active: 30.9%"}, {"smiles": "CN(C1CCCCC1)S(=O)(=O)c1ccc2c(c1)c(=O)c(C(=O)NCc1ccccc1Cl)cn2C", "inhibition": "-12.1%"}, {"smiles": "O=C(Nc1ccc(F)cc1Cl)C1CCN(c2ncnc3c2nc2n3CCCCC2)CC1", "inhibition": "-13.3%"}, {"smiles": "O=C(NCC(c1ccc2c(c1)OCO2)N1CCN(c2ccc(F)cc2)CC1)c1cccc([N+](=O)[O-])c1", "note": "(stereo not given)", "inhibition": "-19%"}, {"smiles": "Cc1ccc2onc(CNC(=O)Nc3ccccc3C#N)c2c1", "inhibition": "4.46%"}, {"smiles": "Cc1ccc(Oc2coc3cc(OCC(=O)NC4CCCCC4)ccc3c2=O)cc1", "inhibition": "-4.68%"}, {"smiles": "Cc1ccc(NC(=O)C2CC(=O)NC(N3CCc4ccccc43)=N2)cc1", "note": "(stereo not given)", "inhibition": "active: 43.7%"}, {"smiles": "N#Cc1ccc(C(=O)Nc2ccccc2-c2nc3ccccc3s2)c(F)c1", "inhibition": "-15.7%"}, {"smiles": "NC(=O)C1CCN(C(=O)NC2CC(=O)N(c3ccc4c(c3)OCCO4)C2)CC1", "note": "(stereo not given)", "inhibition": "active: 45.6%"}, {"smiles": "COc1ccc(OCc2ccc(-c3nc(C#N)c(NCc4ccccc4)o3)o2)cc1", "inhibition": "5.63%"}, {"smiles": "CNS(=O)(=O)c1ccc(NC(=O)c2cnn3c(C(F)F)cc(-c4ccccc4)nc23)cc1", "inhibition": "-10.8%"}, {"smiles": "CCOC(=O)Cc1ccc(NC(=O)n2ncc3cc(Cl)ccc32)cc1", "inhibition": "23.8%"}, {"smiles": "Cc1c(-c2cccc(NC(=O)c3ccc(F)c(F)c3)c2)nc2ncccn12", "inhibition": "-27.8%"}, {"smiles": "Cc1nn(C)c2c1c(C(F)(F)F)cc(=O)n2C(C)C(=O)NCCc1ccc(Cl)cc1", "note": "(stereo not given)", "inhibition": "0.697%"}, {"smiles": "CCc1ccccc1NS(=O)(=O)c1ccc2oc(=O)c3ncn(C)c3c2c1", "inhibition": "2.5%"}, {"smiles": "COCCOC(=O)c1c(C)oc2c1cc(NS(=O)(=O)c1ccc(Cl)c(C)c1)c1ccccc12", "inhibition": "-8.9%"}, {"smiles": "COC(=O)c1ccc(NS(=O)(=O)c2c(C)nc3sccn3c2=O)cc1", "inhibition": "1.01%"}, {"smiles": "CSc1ccc(CCNC(=O)c2ccc3c(c2)nc2n3CCCCC2)cc1", "inhibition": "6.47%"}, {"smiles": "CCOC(=O)Cn1c(=O)n(C2CCCCC2)c2nc(-c3ccc(OCC)cc3)nc(C(N)=O)c21", "inhibition": "-2.44%"}, {"smiles": "O=C(CSc1nccn1-c1ccc(Cl)cc1)Nc1cccc2ccccc12", "inhibition": "24.3%"}, {"smiles": "Cc1cc(OCC(=O)Nc2sc3c(c2C#N)CC(C)(C)NC3(C)C)c(C(C)C)cc1Cl", "inhibition": "active: 34.4%"}, {"smiles": "COc1ccc(Cn2ccnc2SCC(=O)NC2CCCC2)cc1", "inhibition": "11.1%"}, {"smiles": "CC(CCc1ccccc1)NC(=O)Cn1c(=O)nc(-c2ccccc2F)c2cc(Cl)ccc21", "note": "(stereo not given)", "inhibition": "7.88%"}, {"smiles": "C=C1CCN([C@@H](C)C(=O)OCc2cccc(C)c2)S(=O)(=O)c2ccccc21", "inhibition": "active: 31%"}, {"smiles": "Cc1cccc(C)c1NC(=O)CSc1ncc2c(n1)-c1ccc(Cl)cc1N(Cc1ccccc1)S2(=O)=O", "inhibition": "-19%"}]}]}
